# Measured values taken from paper PMC4336329 (PLoS ONE, 2015).
# About 2,200 (0.71%) of roughly 310,000 compounds showed an effect of 50% or more. The effect is printed as a negative number. The list shows a part of the results.
# Biological target: human ether-à-go-go-related gene (hERG) potassium channel (human, UniProt Q12809)
# Test: primary screen, population patch clamp on CHO cells stably expressing hERG
# Sequence of human ether-à-go-go-related gene (hERG) potassium channel (Q12809 whole entry, looked up): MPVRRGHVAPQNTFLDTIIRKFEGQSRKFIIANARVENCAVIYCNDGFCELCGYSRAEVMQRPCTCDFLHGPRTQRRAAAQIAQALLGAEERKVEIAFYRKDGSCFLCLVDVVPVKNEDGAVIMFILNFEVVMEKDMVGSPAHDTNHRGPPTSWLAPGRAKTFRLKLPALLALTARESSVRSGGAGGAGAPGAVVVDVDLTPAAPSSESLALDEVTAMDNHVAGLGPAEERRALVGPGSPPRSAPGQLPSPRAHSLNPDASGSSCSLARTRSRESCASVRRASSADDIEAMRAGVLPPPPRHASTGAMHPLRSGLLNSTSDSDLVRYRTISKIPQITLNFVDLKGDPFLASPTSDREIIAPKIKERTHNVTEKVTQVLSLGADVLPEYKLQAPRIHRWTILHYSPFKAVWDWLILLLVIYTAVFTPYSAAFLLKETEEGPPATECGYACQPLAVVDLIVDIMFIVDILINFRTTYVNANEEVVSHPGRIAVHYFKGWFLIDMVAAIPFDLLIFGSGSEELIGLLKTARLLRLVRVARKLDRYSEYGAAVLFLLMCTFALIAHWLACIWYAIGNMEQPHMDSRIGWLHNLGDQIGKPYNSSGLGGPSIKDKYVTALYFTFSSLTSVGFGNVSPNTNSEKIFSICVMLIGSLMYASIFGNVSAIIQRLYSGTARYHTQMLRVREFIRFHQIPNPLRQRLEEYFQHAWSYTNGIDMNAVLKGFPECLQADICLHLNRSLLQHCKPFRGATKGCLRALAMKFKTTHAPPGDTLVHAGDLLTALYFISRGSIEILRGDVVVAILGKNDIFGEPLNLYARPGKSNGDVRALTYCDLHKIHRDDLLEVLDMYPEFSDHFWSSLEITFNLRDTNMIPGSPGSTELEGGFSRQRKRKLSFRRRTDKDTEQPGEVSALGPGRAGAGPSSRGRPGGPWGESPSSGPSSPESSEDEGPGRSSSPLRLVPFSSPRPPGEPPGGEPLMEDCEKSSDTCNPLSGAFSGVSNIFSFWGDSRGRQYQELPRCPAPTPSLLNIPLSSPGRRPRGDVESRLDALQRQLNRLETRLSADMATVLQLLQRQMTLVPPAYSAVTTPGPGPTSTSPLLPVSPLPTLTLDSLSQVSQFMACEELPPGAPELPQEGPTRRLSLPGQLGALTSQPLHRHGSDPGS
row,Compound,"hERG current change (%, negative = inhibition) at 1uM [%]"
1,Cc1nc2cncc(Br)c2n1C,4.07
2,COc1cc(C(=O)NC(C)C2CC3CCC2C3)ccc1OC(F)F (stereo not drawn),4.12
3,COC(=O)[C@H]1C[C@@H]1[C@H](N)c1ccccc1.Cl,7.65
4,O=C(Nc1ccccc1C(=O)O)c1ccc(N2C(=O)C3CC=CCC3C2=O)cc1 (stereo not drawn),18
5,Cc1ccccc1C1CC(c2cccs2)=NN1S(C)(=O)=O (stereo not drawn),8.14
6,Nn1c(SCc2c(F)cccc2F)nnc1-c1ccccn1,9.31
7,COCCCNC(=O)c1cccc2c(=O)c(C)c(-c3ccccc3)oc12,6.57
8,O=C(NCCN1CCN(C(=O)c2cccc(Br)c2)CC1)C(=O)NCc1ccccc1,-11.2
9,O=C(CN1CCN(Cc2ccccc2Cl)C1=O)NCc1ccco1,4.94
10,CCOC(=O)C1C(=O)CC(C)(O)C(C(=O)OCC)C1c1ccc(Br)cc1 (stereo not drawn),-2.02
11,CCNC(=S)N1CCCC(C(N)=O)C1 (stereo not drawn),12.3
12,CC(C)[C@H](NC(=O)c1c(F)cccc1F)C(=O)N1CCN(c2ccc(F)cc2)CC1,-6.13
13,Cc1ccc(-c2nnn(CC(=O)N(Cc3ccccc3)C(C(=O)NC(C)(C)C)c3ccncc3)n2)o1 (stereo not drawn),1.4
14,COc1ccc(S(=O)(=O)NCCc2cc3ccc(C)c(C)c3[nH]c2=O)cc1,15.5
15,COCc1cc(N2CCOCC2)nc(-c2ccccc2)n1,16.1
16,Cc1cc(C)cc(NC(=O)Cn2ncn3c(cc4ccccc43)c2=O)c1,3.78
17,Cc1ccc(CN(C)C(=O)CCc2c[nH]c3ccccc23)o1,4.2
18,O=C(CN1CCN(c2ccccn2)CC1)Nc1ccc(F)cc1.O=C(O)C(=O)O,-23.4
19,CCOc1ncccc1C(=O)N1CCN(S(=O)(=O)c2ccc(Br)cc2Cl)CC1,6.01
20,N[C@@H](Cc1ccccc1)C(=O)N1C[C@H]2C[C@@H](C1)c1cccc(=O)n1C2,12.1
21,COc1cccc(C2(O)CC(C(F)(F)F)=NN2C(=O)c2ccccn2)c1 (stereo not drawn),9.25
22,Cc1cccc(C(=O)NNS(=O)(=O)c2ccccc2)c1O,9.23
23,CN1/C(=C\C(=O)Nc2cccnc2)c2ccccc2CC1(C)C,6.92

row,Compound,"hERG current change (%, negative = inhibition) at 1uM [%]"
1,Nc1nc(=S)n(-c2ccccc2)[nH]1,12.5
2,CC(C)(C)[C@H]1C=C(C(N)=O)O[C@@H](OCc2ccc(CO)cc2)C1,-0.154
3,CCc1ccccc1NC(=S)N(CCc1ccncc1)C(C)C,-0.188
4,Cc1ncc(CO)c2c1Oc1nc(-c3ccccc3)nc(SCC(=O)Nc3cccc(O)c3)c1C2,9.85
5,CCOC(=O)[C@H]1CCC[C@@H](NS(=O)(=O)c2ccc(NC(C)=O)cc2)C1,8.9
6,COc1ccc(-n2c3c(cc(C(=O)NCc4ccco4)c2=O)C(=O)CC(C)(C)C3)cc1,-5.72
7,CS(=O)(=O)Nc1cccc2cccnc12,10.4
8,C=CCNC(=S)NN=C1CCC(c2ccccc2)CC1 (stereo not drawn),13.1
9,O=C(NCc1ccccn1)C(=O)NCC1OCCN1S(=O)(=O)c1ccc(F)cc1 (stereo not drawn),8.4
10,CCN(CC)c1ccc(/C=N/NC(=O)CNC(=O)c2ccc3c(c2)OCCO3)cc1,12.7
11,COc1ccc(C(=O)CCC(=O)N2CCN(c3ccc([N+](=O)[O-])cc3)CC2)cc1,-28.4
12,Cc1sc(NC(=O)C2C3CCC(O3)C2C(=O)O)nc1-c1ccc(CC(C)C)cc1 (stereo not drawn),3.75
13,COc1ccc(C2c3c(ccc4ccccc34)Oc3ncn4nc(-c5ccco5)nc4c32)cc1 (stereo not drawn),4.06
14,COc1ccc(Cn2nnnc2CN2CCOCC2)cc1,-4.33
15,Cc1ccc(CNC(=O)c2nn(C)c(C)c2[N+](=O)[O-])cc1,5.74
16,CN(CC(=O)Nc1cc(S(=O)(=O)N2CCCCCC2)ccc1Cl)Cc1ccc2c(c1)OCO2,15.5
17,O=C(CSc1nnc(CNC(=O)c2cccc(C(F)(F)F)c2)o1)NCc1ccco1,10.4
18,COc1ccc(/C=N/n2cnnc2SCCO)cc1OC,7.32
19,CN(C)CCC(=O)c1ccc2c(c1)OCO2.Cl,16.3
20,COc1ccc(CN2CCNC(=O)C2CC(=O)N(C)Cc2ccon2)c(OC)c1 (stereo not drawn),8.87
21,CC1CCCCN1C(=O)CN1CCN(S(=O)(=O)c2ccc(Br)cc2Cl)CC1 (stereo not drawn),-2.79
22,COCCNC(=O)C1CC(=O)N(c2ccc(F)c(Cl)c2)C1 (stereo not drawn),7.08
